Laboratory results reported in article PMC9450144.
These are yes or no findings as the source states them, for the method shown. For part of these data: Binding seen in cells or lysates may run through a third protein. Some binding calls cover weakened binding; strength is not graded here. For part of these data: Tags and fused reporters may be left off the sequences shown. Values belong to the molecule of their own block, whether it stands above or below them.

Sequences of proteins named here, by UniProt entry; tags and fusion partners are left off. A change or cut given only in a name is not applied to a line headed by its entry. A line that says so, or that is headed by a name, gives the form on record, which may keep a tag or linker. Residues count along the entry.
UniProt P28799: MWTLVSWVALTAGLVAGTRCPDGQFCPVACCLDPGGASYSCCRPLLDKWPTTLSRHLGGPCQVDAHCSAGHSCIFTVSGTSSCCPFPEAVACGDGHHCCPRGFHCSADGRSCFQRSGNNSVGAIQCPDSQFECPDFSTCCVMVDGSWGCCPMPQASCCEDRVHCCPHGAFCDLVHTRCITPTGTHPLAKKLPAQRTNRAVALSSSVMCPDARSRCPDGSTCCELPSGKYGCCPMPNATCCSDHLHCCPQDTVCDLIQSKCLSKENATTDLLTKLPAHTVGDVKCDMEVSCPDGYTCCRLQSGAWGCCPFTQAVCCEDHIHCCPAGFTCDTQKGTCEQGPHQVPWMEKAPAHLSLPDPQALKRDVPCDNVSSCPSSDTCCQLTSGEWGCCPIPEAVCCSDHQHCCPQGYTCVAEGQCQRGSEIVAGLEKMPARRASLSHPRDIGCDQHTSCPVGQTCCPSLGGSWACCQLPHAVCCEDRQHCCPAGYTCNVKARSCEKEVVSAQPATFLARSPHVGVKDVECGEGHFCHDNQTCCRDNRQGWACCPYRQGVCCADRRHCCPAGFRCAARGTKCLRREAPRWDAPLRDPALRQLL
FLAG-tagged PGRNΔE (amino acids 17–492): residues 17-492 of P28799
GFP-tagged granulin E: residues 518-573 of P28799

Columns and labels:
[1] = target: T1, FL-CD68 (in COS-7 cells) (human) (UniProt P34810); assay: alkaline phosphatase (AP) fusion binding to transfected cells; COS-7 cells transfected with FL-CD68 or with the M + P or Lamp-D domain on the PDGFR transmembrane domain (pDisplay), incubated with AP-tagged PGRN or granulin E at 100 nM
T1 sequence: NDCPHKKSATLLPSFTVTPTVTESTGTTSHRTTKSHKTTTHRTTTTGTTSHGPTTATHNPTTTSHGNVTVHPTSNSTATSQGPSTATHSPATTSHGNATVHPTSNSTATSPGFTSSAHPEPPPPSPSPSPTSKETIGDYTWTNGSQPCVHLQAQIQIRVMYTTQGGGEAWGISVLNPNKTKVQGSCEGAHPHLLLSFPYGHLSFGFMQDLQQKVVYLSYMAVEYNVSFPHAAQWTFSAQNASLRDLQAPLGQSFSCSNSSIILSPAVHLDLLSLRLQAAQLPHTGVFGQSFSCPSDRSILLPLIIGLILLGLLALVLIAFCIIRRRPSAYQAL

[2] = target: T2, CD68-GFP (in COS-7 cells) (human) (UniProt P34810); assay: alkaline phosphatase (AP) fusion binding to transfected cells; COS-7 cells transfected with CD68-GFP, incubated with conditioned media containing AP-tagged granulin peptides; HBH pH 6.4, 3 h at room temperature, AP substrate (NBT/BCIP) read by brightfield microscopy
T2 sequence: T1 sequence

[3] = target: T3, GFP-tagged CD68 (in HEK293T cells) (human) (UniProt P34810); assay: pull-down; conditioned media containing FLAG-tagged PGRN incubated with beads bound to GFP or GFP-CD68; Western blot with anti-GFP and anti-FLAG; only the target purified
T3 sequence: T1 sequence

[4] = target: T3, GFP-tagged CD68 (in HEK293T cells) (human); assay: co-IP; HEK293T cells co-transfected; lysates (150 mM NaCl, 50 mM Tris-HCl pH 7.5, 1% Triton X-100, 0.1% deoxycholic acid) incubated with anti-GFP-conjugated beads (GFP-Trap) 3 to 4 h at 4 °C; Western blot
[5] = target: T4, Myc-His-tagged CD68 (human) (UniProt P34810); assay: co-IP; HEK293T cells co-expressing Myc-tagged CD68 constructs and GFP-tagged PGRN; lysates immunoprecipitated with anti-Myc-conjugated beads; Western blot
T4 sequence: T1 sequence

GFP-tagged granulin E = GFP-tagged granulin E (UniProt P28799); assay: co-IP; HEK293T cells co-transfected; lysates (150 mM NaCl, 50 mM Tris-HCl pH 7.5, 1% Triton X-100, 0.1% deoxycholic acid) incubated with anti-GFP-conjugated beads (GFP-Trap) 3 to 4 h at 4 °C; Western blot
FLAG-tagged PGRN = FLAG-tagged PGRN (UniProt P28799); assay: co-IP; HEK293T cells co-transfected with GFP-tagged CD68 and FLAG-tagged PGRN or PGRN-ΔE; lysates incubated with anti-FLAG-conjugated beads; Western blot
[6] = target: FLAG-tagged PGRNΔE (amino acids 17–492) (UniProt P28799); assay: as above

Molecule: AP-tagged PGRN (from UniProt P28799 18-593) (ligand)
binding [1]: binds

Molecule: AP-tagged granulin E (from UniProt P28799 518-573) (domain or fragment)
binding [2]: binds
binding [1]: binds

Molecule: GFP-tagged PGRN (from UniProt P28799 18-593) (ligand)
binding [5]: binds

B2: GFP-tagged CD68 (in HEK293T cells) (receptor, UniProt P34810 22-354)
chain: T1 sequence
binding (FLAG-tagged PGRN): binds
binding [6]: no binding

Now from value to molecule:

binding [3]: binds
binding [4]: binds
Molecule: FLAG-tagged PGRN (from UniProt P28799 18-593) (ligand)

binding (GFP-tagged granulin E): binds
B1: Myc-His-tagged CD68 (receptor, UniProt P34810 22-354)
chain: T1 sequence
